Results from PubChem BioAssay AID743262 (National Center for Advancing Translational Sciences (NCATS), 2014).
In all, about 1,300 compounds went through this assay and about 25 (2%) were called active. About 9% were inconclusive and are not listed. Calls come from the whole dose curve; as a rule, active = well fitted activation curve with a large enough effect; inconclusive = small, poorly fitted or top-dose-only effect; inactive = flat fitted curve, though single readings scatter. The list shows a part of the results.

Biological target: Glucagon-like peptide 1 receptor (Homo sapiens) (UniProt P43220)
Assay: qHTS of GLP-1 Receptor Agonists: Hit Validation; note: % of control where 0% means no effect
Details: HEK293 GLP-1R, cAMP-response luciferase, 4-6 h; series mostly up to 46.1 µM; activation: at the top concentration
Procedure, shortened: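 Luminescence from a cAMP-responsive luciferase reporter was read 12 min after detection reagent at RT. Before that, HEK293 cells stably expressing GLP-1R plus reporter, seeded 12 h earlier, were exposed to compound for 4-6 hr at 37 deg C.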

UniProt P43220, sequence (P43220 whole entry, looked up): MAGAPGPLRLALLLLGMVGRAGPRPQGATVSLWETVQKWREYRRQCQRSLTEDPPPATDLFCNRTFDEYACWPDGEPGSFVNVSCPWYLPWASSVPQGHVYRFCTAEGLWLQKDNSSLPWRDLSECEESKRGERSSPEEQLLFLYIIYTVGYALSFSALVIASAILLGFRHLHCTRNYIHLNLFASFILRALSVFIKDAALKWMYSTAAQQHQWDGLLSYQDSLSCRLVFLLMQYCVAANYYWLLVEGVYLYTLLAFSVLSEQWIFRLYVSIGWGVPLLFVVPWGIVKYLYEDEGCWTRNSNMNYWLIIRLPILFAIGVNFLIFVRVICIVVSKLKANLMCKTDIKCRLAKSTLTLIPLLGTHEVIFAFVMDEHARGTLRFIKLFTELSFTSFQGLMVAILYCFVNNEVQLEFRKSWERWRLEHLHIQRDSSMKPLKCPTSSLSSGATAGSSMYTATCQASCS

activation, inactive:
CN(C)c1nc(N)c([N+](=O)[O-])c(NCC2CCCO2)n1 (configuration not stated) 6.97%, CCOC(=O)c1[nH]c(C)c(C(=O)OCC(=O)Nc2sc3c(c2C#N)CCCCC3)c1C 0.323%, CCCCCn1c(-c2ccco2)nc2nc3ccccc3nc21 12.9%, CCCCN(CCO)c1ncnc2sc(-c3ccccc3)cc12 12.4%, CCn1c(=NC(=O)c2cccc(N3C(=O)CCC3=O)c2)sc2c(C)ccc(OC)c21 18.3%, COC(=O)c1c(-c2ccncc2)csc1NC(=O)c1ccoc1C 8.04%, CCOC(=O)N1CCN(C(=S)NC2CCCCC2)CC1 0.277%, O=C(CCCOc1ccc(Cl)cc1Cl)N/N=C/c1ccccc1 15.8%, COc1ccc(C2=NOC(COc3ccc4c(C)cc(=O)oc4c3)C2)c(OC)c1 (configuration not stated) 29.5%, CC1(C)CC(=O)C=C(c2cccc3c2sc2ccccc23)C1 6.77%, Cc1ccc(-c2cc(NC=O)c3ncc(-c4cnn(C)c4)n3c2)cc1 22%, C=CCNc1nnnc2c1sc1nc(N3CCOCC3)c3c(c12)CCCC3 13.5%, COc1ccc([N+](=O)[O-])cc1NS(=O)(=O)c1cc(C(=O)N2CCN(C)CC2)ccc1OC 2.19%, COc1cc(-c2c(-c3cc(OC)c(OC)c(OC)c3)noc2C)ccc1F 25.7%, CCN(C(=O)c1cc2c(C)nc3ccccc3c2o1)c1cc(Cl)ccc1OC 8.37%, O=C(NCc1nc2ccccc2[nH]1)c1c(F)cccc1F -0.724%, CCn1c2ccc(OC)cc2c2nc3ccccc3nc21 10.7%, Cc1c(C(=O)Nc2ccc3c(c2)OCCO3)oc2ccc(Br)cc12 2.23%, COc1ccc2c(C)cc(=S)[nH]c2c1 3.33%, CC(C)NC(=O)c1ccc(COc2ccc(C(C)(C)C)cc2)o1 2.36%, O=c1c2ccccc2nc(-c2ccco2)n1Cc1ccccc1 1.44%, COc1ccc(C(C)=O)cc1CSCc1cc(C(C)=O)ccc1OC 4.12%, CCOc1ncccc1C(=O)OCc1ccc(C(=O)OC)o1 3.21%, Cc1ccc(O)c(NC(=O)C2CC(c3cccc(Br)c3)=NO2)c1 (configuration not stated) 5.03%, COc1ccc(-n2c(SCC#N)nnc2-c2ccc(NS(=O)(=O)c3ccc(C)cc3)cc2)cc1 2.8%, Cc1cc2c(cc(C(=O)OCC(=O)NCc3cccs3)n2C(C)C)o1 22.6%, Cc1ccc(CNc2ccc(O)cc2)cc1 0.472%, CC(=O)Oc1cc(C)c(OC(C)=O)c2ccccc12 -0.473%, CC1CCc2sc3nc(N4CCN(CCO)CC4)n4ncnc4c3c2C1 (configuration not stated) 16.2%, COc1ccc(CNS(=O)(=O)CCNC(=O)c2ccc(OC)cc2)cc1 -1.08%, Nc1nnnn1/N=C/c1ccccc1Cl -0.611%, C=C(C)CSc1nncn1/N=C/c1ccc(OC)cc1 1.56%, O=C(NCCc1ccccc1)c1ccc(-c2ccccc2Cl)o1 3.41%, COc1ccc(CC(=O)OCC(=O)N2c3ccccc3CC2C)cc1OC (configuration not stated) -0.291%, COc1ccc(-c2nnc(OCc3nc4ccccc4n3C)c3ccccc23)cc1 18.7%, CCn1c(SCC(=O)OC)nc2sc3c(c2c1=O)CCC3 3.72%, Nc1nc(Nc2ccccc2F)nc(N2CCCC2)c1[N+](=O)[O-] 9.62%, COc1ccc(/C=C2\CCC(C3CCCC3)C2=O)cc1 (configuration not stated) -0.535%, CCc1nc2ccc(C(=O)Nc3ccc(OC)c(OC)c3)cn2c1N(CC)Cc1ccc(OC)c(OC)c1 12.9%, CC(CC1CC(C)(C)OC1=O)C(=O)Nc1nncs1 (configuration not stated) -1.07%, Cc1cc(C)c2c3c(sc2n1)C(c1ccccc1)C(C#N)=C(N)O3 (configuration not stated) 11.5%, CC(C)c1ccc(Nc2nc(Cl)nc(NCCO)n2)cc1 2.61%, CCOc1cc(CN2CCN(c3cccc(C(F)(F)F)c3)CC2)ccc1OC 0.52%, COc1cc2c(cc1OC)/C(=C/C(=O)c1cccc([N+](=O)[O-])c1)NCC2 29.4%, N#Cc1nc(-c2cccs2)oc1NCc1ccco1 0.479%, COc1ccc(CCN(C)C(=O)CCc2nnc(-c3ccccc3)o2)cc1OC -0.272%, CCCn1c2c(c(O)c(C(=O)NCCCN(CC)CC)c1=O)CCCC2 0.237%, COc1ccc(/C=C2\CCc3ccccc3C2=O)c(OC)c1OC 1.42%, O=c1cc(-c2ccccc2)oc2ccccc12 6.68% [at 92.2 µM], OC(CNCc1cccc(Cl)c1)c1ccccc1 (configuration not stated) 15.6%, COc1ccc(C(=O)COC(=O)c2sccc2C)cc1OC 4.91%, Cc1ccc(-c2nc3ccccc3[nH]2)cc1NC(=O)c1sc2ccccc2c1Cl 0.319%, COc1ccc(Nc2ccc(S(=O)(=O)N3CCCCC3)cc2[N+](=O)[O-])cc1OC 3.02%, CC(C)N(CCNC(=O)c1oc(=O)c2ccccc2c1-c1ccccc1)Cc1ccco1 5.31%, COc1ccc2nc(SCc3ccccc3)nc(C)c2c1 5.73%, COC(C)c1oc2c(C)c3oc(=O)cc(C)c3cc2c1C (configuration not stated) 6.59%, COc1cc2c(cc1OC)C(c1cccc([N+](=O)[O-])c1)=NCC2 16.3%, CN1C(C(=O)Nc2ccccn2)C(=O)c2sc(Cl)cc2S1(=O)=O (configuration not stated) -1.06%, COc1ccc(/C=N/n2c(-c3ccc(C)cc3)n[nH]c2=S)cc1OC 22.8%, CC1CCCN(Cc2ccc(OCc3ccccc3)cc2)C1 (configuration not stated) 0.569%, COC(=O)c1ccccc1NC(=O)COc1ccc(S(=O)(=O)NC(C)C)cc1 19.6%, CCN(c1ccccc1)c1nc(Cl)nc2c1cnn2C 9.56%, CCOc1ccc(Br)cc1S(=O)(=O)Nc1ccc(C(=O)OCC(=O)N(C)c2ccccc2)cc1 0.375%, CSc1ncccc1C(=O)OCCCC(=O)c1ccc(F)cc1 0.334%, COC(=O)C(C)Sc1ccc2nnc(-c3ccc(F)cc3)n2n1 (configuration not stated) -0.497%, CCCc1ccc2oc(C(=O)N3CCC(COC)C3)c(C)c2c1 (configuration not stated) 2.34%, COc1cc2c(cc1OC)-c1cc(NC3CC3)nc(=O)n1CC2 10.1%, CCOc1ccc(/C=C2/Sc3ccc(C(=O)NCC4CCCO4)cc3N(C)C2=O)cc1OC (configuration not stated) 18.7%, COc1ccc(-c2cnc3c(NC(C)=O)cc(-c4cccc(NS(C)(=O)=O)c4)cn23)cc1OC 27.9%, CCOc1ccc(Oc2c(/C=N/NC(N)=O)c(C)nn2-c2ccccc2)cc1 16%, CCOC(=O)c1[nH]c(C)c(C(=O)Nc2cc(OC)ccc2OC)c1C 8.95%, N#Cc1nc(-c2cccs2)oc1NCc1ccccc1Cl 11.1%
